This is an account of results in ChEMBL document CHEMBL4888484, “Replenishing the malaria drug discovery pipeline: Screening and hit evaluation of the MMV Hit Generation Library 1 (HGL1) against asexual blood stage Plasmodium falciparum ,using a nano luciferase reporter read-out” (2022).

The campaign covered roughly 150,000 compounds. About 540 (0.36%) showed an effect of 50% or more. The list shows a part of the results.

This assay concerns Plasmodium falciparum. The experiment in a line: Primary screen in NF54 nanoGlo assay, in single point, at 2uM, 72h; a lower Z score goes with more inhibition. The format is functional, Erythrocyte. The settings on record: timepoint 72 hour.
Turning to `CC1(C)CC1(NC(=O)NC1CC2CCCCN2C1=O)c1ccccc1` (centres undefined), the “% Inhibition” value was found to be 15% and the Z score was -1.85.

Consider `CC1(C)[C@@H](O)[C@H]2CCCN(C(=O)c3cc(C(F)F)ncn3)[C@H]21`, for which the “% Inhibition” value was -5% and the Z score is reported as 0.54.

As to `CCOc1cc(N2CC[C@H](C(N)=O)C2)ncn1`, the “% Inhibition” value is listed as -1% and the Z score is given as 0.08.

As to `Cc1ccc(OCc2ccc(C(=O)N(CCC#N)CC3CCC3)o2)c(C)c1`, the “% Inhibition” value is listed as 5% and the Z score is given as -0.49.

As to `COc1ccc([C@H]2C[C@H](NC(=O)NCc3cccnc3C)C2)cc1F`, the “% Inhibition” value was -12% and the Z score is recorded as 1.22.

With `CCc1nnc(CN(CC)C(=O)c2cc(CC(C)C)no2)o1`, the “% Inhibition” value is recorded as -7% and the Z score was determined as 1.02.

As to `CC(=O)Oc1c(C)cc(CNCc2cnc(C)cn2)cc1C`, the “% Inhibition” value worked out at 11% and the Z score is -1.62.

For the molecule `O=C1CCC(CCC(=O)N2CCCC2c2nc3cc(F)ccc3[nH]2)(Cc2ccc3c(c2)OCO3)N1` (centres undefined), the “% Inhibition” value was determined as 2% and the Z score is -0.25.

As for `CCc1cc(OC)ccc1CN(C)Cc1nncn1C`, the “% Inhibition” value is given as -14% and the Z score turned out to be 1.77.

Regarding `C[C@@H](Cc1cccs1)NC(=O)CCS(C)(=O)=O`, the “% Inhibition” value is on record as -8% and the Z score was 0.98.

Take `CN(C(=O)C1CC1c1ccccc1)C1(c2ccccc2)CCCCC1=O` (centres undefined): the “% Inhibition” value is -5% and the Z score was found to be 0.71.

In the case of `CCCCN1C(=O)CC[C@@H]2CN(c3nnnn3-c3ccccc3)CC[C@@H]21`, the “% Inhibition” value worked out at 0% and the Z score was 0.04.

For the molecule `Cc1nnc2n1CCN([C@@H](C)C(=O)Nc1ccc(Cl)cn1)C2`, the “% Inhibition” value is given as -7% and the Z score is on record as 1.08.

As to `O=S(=O)(Cc1ccon1)NCc1cccs1`, the “% Inhibition” value is -12% and the Z score stood at 1.16.

With `COCCOCCC(=O)N1CC=C(c2cccc3ccccc23)CC1`, the “% Inhibition” value is given as -12% and the Z score came out at 1.18.

As for `O=C(NCCc1ccc(O)cc1)N1CCN(S(=O)(=O)N2CCOCC2)CC1`, the “% Inhibition” value is -3% and the Z score stood at 0.5.

On to `O=C(O)c1cc(C2CC2)n2nc(-c3cccc(F)c3)cc2n1`, for which the “% Inhibition” value was found to be 0% and the Z score is reported as -0.05.

Regarding `CCOCCC(=O)Oc1c(C)cc(C#N)cc1C`, the “% Inhibition” value was -6% and the Z score worked out at 1.06.

`Cc1noc(C)c1COC(=O)c1cc(C2CC2)nc2ccccc12`: the “% Inhibition” value came to 0% and the Z score was -0.05.

`Cc1ccc(CN2CCN(C(=O)CCc3n[nH]c(C)c3C)CC2=O)cc1C`: the “% Inhibition” value is -3% and the Z score is on record as 0.44.

Regarding `CNC(=O)[C@@H]1C[C@@H](Nc2ccnc(OC)c2C#N)CN1Cc1ccccn1`, the “% Inhibition” value is listed as 2% and the Z score is recorded as -0.32.

Take `Cn1ccnc1C(N[C@H]1CCCN(C(=O)OC(C)(C)C)C1)C1CC1` (some centres undefined): the “% Inhibition” value is -11% and the Z score is reported as 1.18.

Take `CCCc1nnc(N[C@H]2CC(=O)N(C3CC3)C2)s1`: the “% Inhibition” value was -16% and the Z score came out at 1.57.

Consider `Cc1cccc(C2CC(C(=O)N(C)Cc3ccco3)CN(Cc3ccccc3)C2)c1` (centres undefined), for which the “% Inhibition” value is recorded as -12% and the Z score stood at 1.4.

Take `O=C1N(Cc2ccc(F)c(F)c2)CCC[C@@]1(O)CN1CCC2(CC1)OCCO2`: the “% Inhibition” value is reported as -8% and the Z score came to 1.02.

Regarding `Cc1ccc(C(=O)NCc2cncn2C2CC2)n1C(F)F`, the “% Inhibition” value was -5% and the Z score is 0.73.

On to `COc1nscc1CN(C)c1ncnc2[nH]ncc12`, for which the “% Inhibition” value is -8% and the Z score was 1.54.

Turning to `Cc1nc(CCN)cc(N(C)C[C@H]2Cc3ccccc3O2)n1`, the “% Inhibition” value is -8% and the Z score came out at 1.11.

With `COc1ccc(CN[C@@H](C)CN2CCCC2=O)cc1OCc1cccnc1`, the “% Inhibition” value is listed as -16% and the Z score turned out to be 2.48.

On to `COc1cc(C(=O)NC(C(C)C)C(C)C)cc(OC)c1OC`, for which the “% Inhibition” value was found to be 4% and the Z score is reported as -0.75.

As for `Cn1nc(CN2CCC[C@H](Oc3ccc(Cl)c(Cl)c3)C2)[nH]c1=O`, the “% Inhibition” value worked out at 5% and the Z score was -0.6.

For the molecule `CC(C)N1CCC[C@H](n2cnc3c2c(=O)n(C)c(=O)n3C)C1=O`, the “% Inhibition” value turned out to be 13% and the Z score is listed as -1.47.

For the molecule `CCCS(=O)(=O)c1ccc(Cl)cc1N`, the “% Inhibition” value is given as -15% and the Z score turned out to be 2.18.

For the molecule `C[C@@H]1CN(C(=O)c2ccoc2C(F)(F)F)C[C@H](C)N1CCO`, the “% Inhibition” value came out at 23% and the Z score was -2.94.

Take `O=c1cccc(-c2noc([C@@H]3CCCN3Cc3ccccc3)n2)[nH]1`: the “% Inhibition” value is 9% and the Z score is -1.76.

Take `Cc1ccc2nc(-c3ccc(C)c(NC(=O)c4ccc(-c5cccc(Cl)c5)o4)c3)oc2c1`: the “% Inhibition” value is listed as 30% and the Z score is -3.41.

`CCOC(=O)N(C)OC(=O)Nc1ccc(Cl)c(Cl)c1`: the “% Inhibition” value is reported as -11% and the Z score was determined as 2.09.

For `CC1CCCC(C)N(C(=O)c2ccc(S(N)(=O)=O)c(F)c2)C1` (centres undefined), the “% Inhibition” value is listed as 1% and the Z score is given as -0.15.

For `c1ncn(C[C@H]2CCCCN2CC2CCCC2)n1`, the “% Inhibition” value was -8% and the Z score is reported as 1.06.

Take `Cc1cc(C)cc(-n2nc(-c3ccccc3)nc2[C@H]2CC(=O)N(C)C2)c1`: the “% Inhibition” value was -14% and the Z score is recorded as 1.95.

Consider `CCC1(O)CCN(C(=O)c2ccc3nccc(C)c3c2)CC1`, for which the “% Inhibition” value is reported as 0% and the Z score is -0.06.

Take `O=C(c1cn(-c2ccccc2)nc1-c1ccc2c(c1)OCCO2)n1nnc2ccccc21`: the “% Inhibition” value is -8% and the Z score amounted to 1.01.
